# Measured values as given in the supplement of paper PMC8728848.
# The other results are listed elsewhere or left out.
# How the values were obtained:
# Assay in all cases: glycan array binding signal (z-score within array); higher = stronger binding
# Conditions in all cases: glycan notation: IUPAC condensed, linker removed
# GalNAc3S(b1-4)GlcNAc = target: GalNAc3S(b1-4)GlcNAc
# Procedure, shortened: (§1)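 Columns mapping to the same glycan were averaged after glycan names were converted to IUPAC-condensed notation. The data come from 3228 arrays in the Consortium for Functional Glycomics database, limited to those with an available protein sequence. Binding is reported as a within-array Z-score averaged across arrays of one protein sequence and across linkers.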
# GalNAc3S(b1-4)GlcNAc3S = target: GalNAc3S(b1-4)GlcNAc3S
# Procedure, shortened: as §1
# [1] = target: GalNAc3S(b1-4)[Fuc(a1-3)]GlcNAc
# Procedure, shortened: as §1
# GalNAc4S6S(b1-4)GlcNAc = target: GalNAc4S6S(b1-4)GlcNAc
# Procedure, shortened: as §1
# GalNAc6S(b1-4)GlcNAc = target: GalNAc6S(b1-4)GlcNAc
# Procedure, shortened: as §1
# Glc(a1-4)Glc = target: Glc(a1-4)Glc
# Procedure, shortened: as §1
# [2] = target: Glc(a1-4)Glc(a1-4)Glc(a1-4)Glc
# Procedure, shortened: as §1
# Glc(a1-6)Glc(a1-6)Glc = target: Glc(a1-6)Glc(a1-6)Glc
# Procedure, shortened: as §1
# [3] = target: Glc(a1-6)Glc(a1-6)Glc(a1-6)Glc
# Procedure, shortened: as §1
# Glc(b1-4)Glc = target: Glc(b1-4)Glc
# Procedure, shortened: as §1
# Glc(b1-6)Glc = target: Glc(b1-6)Glc
# Procedure, shortened: as §1
# GlcA(b1-3)Gal = target: GlcA(b1-3)Gal
# Procedure, shortened: as §1
# GlcA(b1-3)GlcNAc = target: GlcA(b1-3)GlcNAc
# Procedure, shortened: as §1
# GlcA(b1-6)Gal = target: GlcA(b1-6)Gal
# Procedure, shortened: as §1
# [4] = target: GlcA3S(b1-3)Gal(b1-4)GlcNAc(b1-2)Man
# Procedure, shortened: as §1
# [5] = target: GlcA3S(b1-3)Gal(b1-4)GlcNAc(b1-3)Gal(b1-4)Glc
# Procedure, shortened: as §1
# [6] = target: GlcNAc(a1-3)Gal(b1-4)GlcNAc
# Procedure, shortened: as §1
# [7] = target: GlcNAc(a1-4)Gal(b1-3)GlcNAc
# Procedure, shortened: as §1
# [8] = target: GlcNAc(a1-4)Gal(b1-4)GalNAc
# Procedure, shortened: as §1
# [9] = target: GlcNAc(a1-4)Gal(b1-4)GlcNAc
# Procedure, shortened: as §1
# [10] = target: GlcNAc(a1-4)Gal(b1-4)GlcNAc(b1-3)Gal(b1-4)Glc
# Procedure, shortened: as §1
# [11] = target: GlcNAc(a1-4)Gal(b1-4)GlcNAc(b1-3)Gal(b1-4)GlcNAc
# Procedure, shortened: as §1
# [12] = target: GlcNAc(a1-4)Gal(b1-4)GlcNAc(b1-3)Gal(b1-4)GlcNAc(b1-3)Gal(b1-4)GlcNAc
# Procedure, shortened: as §1
# [13] = target: GlcNAc(a1-4)Gal(b1-4)GlcNAc(b1-3)Gal(b1-4)[Fuc(a1-3)]GlcNAc(b1-3)Gal(b1-4)[Fuc(a1-3)]GlcNAc
# Procedure, shortened: as §1
# [14] = target: GlcNAc(a1-6)Gal(b1-4)GlcNAc
# Procedure, shortened: as §1
# [15] = target: GlcNAc(b1-2)Gal(b1-3)GalNAc
# Procedure, shortened: as §1
# [16] = target: GlcNAc(b1-2)Man(a1-3)[GlcNAc(b1-2)Man(a1-6)]Man(b1-4)GlcNAc(b1-4)GlcNAc
# Procedure, shortened: as §1
# [17] = target: GlcNAc(b1-2)Man(a1-3)[GlcNAc(b1-2)Man(a1-6)]Man(b1-4)GlcNAc(b1-4)[Fuc(a1-6)]GlcNAc
# Procedure, shortened: as §1
# [18] = target: GlcNAc(b1-2)Man(a1-3)[GlcNAc(b1-4)][GlcNAc(b1-2)Man(a1-6)]Man(b1-4)GlcNAc(b1-4)GlcNAc
# Procedure, shortened: as §1
# [19] = target: GlcNAc(b1-2)Man(a1-3)[GlcNAc(b1-4)][GlcNAc(b1-2)Man(a1-6)]Man(b1-4)GlcNAc(b1-4)[Fuc(a1-6)]GlcNAc
# Procedure, shortened: as §1
# [20] = target: GlcNAc(b1-2)[GlcNAc(b1-4)]Man(a1-3)[GlcNAc(b1-2)Man(a1-6)]Man(b1-4)GlcNAc(b1-4)GlcNAc
# Procedure, shortened: as §1
# [21] = target: GlcNAc(b1-2)[GlcNAc(b1-4)]Man(a1-3)[GlcNAc(b1-4)][GlcNAc(b1-2)Man(a1-6)]Man(b1-4)GlcNAc(b1-4)GlcNAc
# Procedure, shortened: as §1
# [22] = target: GlcNAc(b1-2)[GlcNAc(b1-4)]Man(a1-3)[GlcNAc(b1-4)][GlcNAc(b1-2)[GlcNAc(b1-6)]Man(a1-6)]Man(b1-4)GlcNAc(b1-4)GlcNAc
# Procedure, shortened: as §1
# [23] = target: GlcNAc(b1-2)[GlcNAc(b1-4)]Man(a1-3)[GlcNAc(b1-4)][GlcNAc(b1-2)[GlcNAc(b1-6)]Man(a1-6)]Man(b1-4)GlcNAc(b1-4)[Fuc(a1-6)]GlcNAc
# Procedure, shortened: as §1
# [24] = target: GlcNAc(b1-2)[GlcNAc(b1-6)]Man(a1-6)[GlcNAc(b1-2)Man(a1-3)]Man(b1-4)GlcNAc(b1-4)GlcNAc
# Procedure, shortened: as §1
# [25] = target: GlcNAc(b1-2)[GlcNAc(b1-6)]Man(a1-6)[GlcNAc(b1-2)Man(a1-3)]Man(b1-4)GlcNAc(b1-4)[Fuc(a1-6)]GlcNAc
# Procedure, shortened: as §1
# [26] = target: GlcNAc(b1-2)[GlcNAc(b1-6)]Man(a1-6)[GlcNAc(b1-4)][GlcNAc(b1-2)Man(a1-3)]Man(b1-4)GlcNAc(b1-4)GlcNAc
# Procedure, shortened: as §1
binder,measurement,setting,value
"LCA (Lens culinaris), P02870 (protein) MASLQTQMISFYLIFLSILLTTIFFFKVNSTETTSFSITKFSPDQKNLIFQGDGYTTKGKLTLTKAVKSTVGRALYSTPIHIWDRDTGNVANFVTSFTFVIDAPSSYNVADEFTFFIAPVDTKPQTGGGYLGVFNSKEYDKTSQTVAVEFDTFYNAAWDPSNKERHIGIDVNSIKSVNTKSWNLQNGERANVVIAFNAATNVLTVTLTYPNSLEEENVTSYTLNEVVPLKDVVPEWVRIGFSATTGAEFAAHEVHSWSFHSELGGTSSSKQAADA",glycan array binding signal (z-score),GalNAc3S(b1-4)GlcNAc,-0.237
same,glycan array binding signal (z-score),GalNAc3S(b1-4)GlcNAc3S,-0.235
same,glycan array binding signal (z-score),[1],-0.233
same,glycan array binding signal (z-score),GalNAc4S6S(b1-4)GlcNAc,-0.271
same,glycan array binding signal (z-score),GalNAc6S(b1-4)GlcNAc,-0.276
same,glycan array binding signal (z-score),Glc(a1-4)Glc,-0.208
same,glycan array binding signal (z-score),[2],-0.207
same,glycan array binding signal (z-score),Glc(a1-6)Glc(a1-6)Glc,-0.194
same,glycan array binding signal (z-score),[3],-0.227
same,glycan array binding signal (z-score),Glc(b1-4)Glc,-0.21
same,glycan array binding signal (z-score),Glc(b1-6)Glc,-0.176
same,glycan array binding signal (z-score),GlcA(b1-3)Gal,-0.231
same,glycan array binding signal (z-score),GlcA(b1-3)GlcNAc,-0.217
same,glycan array binding signal (z-score),GlcA(b1-6)Gal,-0.206
same,glycan array binding signal (z-score),[4],-0.249
same,glycan array binding signal (z-score),[5],-0.228
same,glycan array binding signal (z-score),[6],-0.217
same,glycan array binding signal (z-score),[7],-0.248
same,glycan array binding signal (z-score),[8],-0.181
same,glycan array binding signal (z-score),[9],-0.226
same,glycan array binding signal (z-score),[10],-0.135
same,glycan array binding signal (z-score),[11],-0.237
same,glycan array binding signal (z-score),[12],-0.24
same,glycan array binding signal (z-score),[13],-0.191
same,glycan array binding signal (z-score),[14],-0.218
same,glycan array binding signal (z-score),[15],-0.161
same,glycan array binding signal (z-score),[16],2.04
same,glycan array binding signal (z-score),[17],5.54
same,glycan array binding signal (z-score),[18],-0.039
same,glycan array binding signal (z-score),[19],0.424
same,glycan array binding signal (z-score),[20],-0.169
same,glycan array binding signal (z-score),[21],-0.212
same,glycan array binding signal (z-score),[22],-0.287
same,glycan array binding signal (z-score),[23],-0.258
same,glycan array binding signal (z-score),[24],-0.183
same,glycan array binding signal (z-score),[25],8.45
same,glycan array binding signal (z-score),[26],-0.173
